The whole screen tested about 110,000 compounds, of which about 230 (0.21%) showed an effect of 50% or more. The list shows a part of the results.
biological target: DPAP1 (Plasmodium falciparum, UniProt Q8IIJ9); experiment: primary screen, percent inhibition; read by cleavage of a fluorogenic dipeptide substrate; higher = more effect of the substance; parameters: species or system P. falciparum D10 trophozoite lysates; single well
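Further: 30 min substrate incubation versus DMSO and 10 µM JCP410 controls.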

Sequence of DPAP1 (Q8IIJ9 whole entry, looked up): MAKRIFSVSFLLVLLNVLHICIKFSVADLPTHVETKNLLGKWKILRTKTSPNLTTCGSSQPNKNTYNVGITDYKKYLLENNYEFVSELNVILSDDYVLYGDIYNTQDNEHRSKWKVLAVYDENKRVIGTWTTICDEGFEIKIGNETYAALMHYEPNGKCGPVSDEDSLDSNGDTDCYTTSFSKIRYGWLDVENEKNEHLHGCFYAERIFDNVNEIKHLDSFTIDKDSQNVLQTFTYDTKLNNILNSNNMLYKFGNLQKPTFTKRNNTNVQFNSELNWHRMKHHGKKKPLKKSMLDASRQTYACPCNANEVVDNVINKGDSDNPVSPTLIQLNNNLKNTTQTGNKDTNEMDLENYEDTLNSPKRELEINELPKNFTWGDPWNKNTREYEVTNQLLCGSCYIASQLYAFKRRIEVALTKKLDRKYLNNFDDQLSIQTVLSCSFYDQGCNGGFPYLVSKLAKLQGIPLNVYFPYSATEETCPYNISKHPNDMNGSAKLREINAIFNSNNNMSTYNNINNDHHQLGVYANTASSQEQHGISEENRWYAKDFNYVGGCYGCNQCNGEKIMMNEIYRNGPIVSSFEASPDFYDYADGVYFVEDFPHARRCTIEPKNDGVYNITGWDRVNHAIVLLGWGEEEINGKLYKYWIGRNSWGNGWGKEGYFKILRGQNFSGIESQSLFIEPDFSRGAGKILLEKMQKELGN

First: CC(Cc1ccccc1F)NCc1ccccn1 (stereo not shown)
Second: O=c1c2cc3ccccc3n2cnn1Cc1ccccc1F
The “% Inhibition @ 10 uM” value of the first is lower: -1.42% for the first, 1.72% for the second.

First: O=C(COc1ccc(Br)cc1)N1CCN(c2ccc(F)cc2)CC1
Second: COc1ccc(C(=O)N2CCN(Cc3cc(Br)ccc3OC)CC2)cc1
The “% Inhibition @ 10 uM” value of the first is higher: 0.993% for the first, -1.24% for the second.

First: CSc1nc2c(c(=O)n1CC1CCCCC1)C1(CCCCC1)Cc1ccccc1-2
Second: Cn1c(=O)c2c(nc(Sc3nc4ccccc4n3CC(=O)NC3CCCCC3)n2C)n(C)c1=O
The “% Inhibition @ 10 uM” value of the first is lower: -7.54% for the first, 3.99% for the second.

First: CCN(CC)CCn1c(NC(=O)c2ccc(Br)cc2)nc2ccccc21
Second: CCCCOc1ccc(C(=O)Nc2cc(-c3ccccc3)no2)cc1
The “% Inhibition @ 10 uM” value of the first is lower: -0.216% for the first, 0.0367% for the second.

Compared with `O=C(OCCCNc1nc(-c2ccc(Cl)cc2)nc2ccccc12)c1ccncc1`, `O=C(c1cccnc1)N1N=C(c2ccc(Br)cc2)CC1c1nc2ccccc2[nH]1` (stereo not shown) is lower in “% Inhibition @ 10 uM” value: 1.52% for the first, -7.7% for the second.

First: CCOC(=O)C1=C(O)/C(=C\c2ccc(C(C)C)cc2)N=C1C
Second: CCOC(=O)C1=C(C)N=C(C)/C(=C(/O)OCC)C1c1ccc(C)cc1 (stereo not shown)
The “% Inhibition @ 10 uM” value of the first is lower: -1.6% for the first, 3.76% for the second.

Compared with `COc1ccc(C(=O)Nc2cccc(NC(C)=O)c2)cc1OC`, `COC(=O)c1ccc(NC(=O)c2ccccc2C(=O)O)cc1` is higher in “% Inhibition @ 10 uM” value: -8.76% for the first, 0.266% for the second.

Going from `Cc1cc(C)c2nc(N3CCC(C(=O)NCc4cccc(Cl)c4)CC3)sc2c1` to `CCOC(=O)C1CCN(Cc2c(C)[nH]c3ccccc23)CC1`, the “% Inhibition @ 10 uM” value rises from -1.58% to 2.23%.

Compared with `CC(=O)Nc1ccc(CN2CCN(Cc3ccccc3)CC2)cc1`, `CN1CCN(c2ccc(NC(=O)c3cccc(Cl)c3Cl)cc2)CC1` is higher in “% Inhibition @ 10 uM” value: -4.35% for the first, -2.8% for the second.

Compared with `CCCN(CCC)C(=O)CSc1nc2ccncc2[nH]1`, `CC(C)c1ccccc1NC(=O)c1cnccn1` is lower in “% Inhibition @ 10 uM” value: 4.83% for the first, -3.74% for the second.

Compared with `COCCNc1nc2c(-c3cccc(C(F)(F)F)c3)nnn2c2ccccc12`, `Cc1cccc(C(=O)Nc2ccccc2C(F)(F)F)c1` is lower in “% Inhibition @ 10 uM” value: 2.04% for the first, -6.12% for the second.

First: O=S(=O)(NCc1ccco1)c1ccc2[nH]c3c(c2c1)CCCC3
Second: O=C(c1cccc2ccccc12)c1nc2c(n1O)CCCCC2
The “% Inhibition @ 10 uM” value of the first is lower: -9.17% for the first, -1.81% for the second.

Going from `O=C(C1=C(O)C(=O)N(CCN2CCOCC2)C1c1cccnc1)c1cc2ccccc2o1` (stereo not shown) to `N=c1c(C(=O)NCCN2CCOCC2)cc2c(=O)n3ccccc3nc2n1C1CCCC1`, the “% Inhibition @ 10 uM” value rises from -4.39% to 1.97%.

Going from `COC(=O)c1ccc(Oc2nc3c(c(=O)n(C)c(=O)n3C)n2Cc2ccc(C#N)cc2)cc1` to `COC(=O)c1sc(N2C(=O)C(O)=C(C(=O)c3cccs3)C2c2ccc(OC)cc2)nc1C` (stereo not shown), the “% Inhibition @ 10 uM” value rises from -1.03% to 5.37%.

First: O=c1ccc2ccc(OCc3ccccc3Cl)cc2o1
Second: O=C(Nc1ccc2c(c1)OCO2)c1ccc2ccccc2c1
The “% Inhibition @ 10 uM” value of the first is higher: 3.06% for the first, -0.178% for the second.

Compared with `O=C(O)c1ccccc1Nc1ccc(Cl)cc1`, `Cc1ccc(Nc2ncccc2C(N)=O)cc1` is higher in “% Inhibition @ 10 uM” value: -6.49% for the first, 0.643% for the second.

Going from `O=c1c2nccnc2nc(SCc2cccc(F)c2)n1CCc1c[nH]c2ccccc12` to `CCOC(=O)c1cc2c(=O)n3cc(C)ccc3nc2n(CCc2ccccc2)c1=N`, the “% Inhibition @ 10 uM” value falls from -2.79% to -9.1%.

Compared with `Cc1nn(C)cc1NC(=O)CC12CC3CC(CC(C3)C1)C2`, `COC(=O)c1cc(S(=O)(=O)N(Cc2ccccn2)C2CCN(C)CC2)c[nH]1` is lower in “% Inhibition @ 10 uM” value: -4.35% for the first, -8.65% for the second.

Compared with `CCOc1ccc(Sc2cc(C(=O)NCC3CCCO3)c3ccccc3n2)cc1` (stereo not shown), `Cc1cc(CNC(=O)c2ccc(Br)o2)c2ccccc2n1` is lower in “% Inhibition @ 10 uM” value: -0.0542% for the first, -0.834% for the second.

Going from `CS(=O)(=O)N(CC(=O)NC1CCCC1)c1ccc(Oc2ccccc2)cc1` to `Cc1ccccc1S(=O)(=O)Cc1ccc(C(=O)N2CCC(Cc3ccccc3)CC2)o1`, the “% Inhibition @ 10 uM” value rises from -5.13% to -1.28%.

Compared with `O=C1C2C3C=CC(CO)(O3)C2C(=O)N1c1cc(Cl)ccc1Cl` (stereo not shown), `CN1CC[C@@]2(O)CCCC[C@@H]2[C@H]1c1ccc(Cl)cc1Cl` is lower in “% Inhibition @ 10 uM” value: 2.65% for the first, -0.771% for the second.

First: c1ccc2[nH]c(NCCN3CCOCC3)nc2c1
Second: Clc1ccc(-n2ncc3c(NCCN4CCOCC4)ncnc32)cc1
The “% Inhibition @ 10 uM” value of the first is higher: -3.33% for the first, -5.01% for the second.

First: Cc1ccc(O)c(CCc2ccc(O)c(O)c2)n1
Second: Cc1cccc(NCc2ccc(Cl)cc2)n1
The “% Inhibition @ 10 uM” value of the first is higher: 1.29% for the first, 1.19% for the second.

Going from `COc1ccc(/C=C2\Cc3ccccc3C2=O)cc1Br` to `COc1ccc(-c2nc3ccccc3[nH]2)cc1`, the “% Inhibition @ 10 uM” value falls from 4.79% to -1.29%.

Compared with `O=C(NCCN1CCC(Cc2ccccc2)CC1)C(c1ccccc1)N1Cc2ccccc2C1=O` (stereo not shown), `O=S(=O)(NC1CCN(Cc2ccccc2)CC1)c1ccc(-n2cccn2)cc1` is higher in “% Inhibition @ 10 uM” value: -1.58% for the first, 9.52% for the second.

First: CCCC1=C(C(=O)OCC)C(c2cccs2)C(C#N)=C(N)O1 (stereo not shown)
Second: N#CC1=C(N)Oc2[nH]nc(-c3ccccc3)c2C1c1cccs1 (stereo not shown)
The “% Inhibition @ 10 uM” value of the first is lower: 2.82% for the first, 4.39% for the second.

Compared with `CCOC(=O)c1c(N)sc(C(=O)N2CCOCC2)c1C`, `CCOC(=O)N1CCC2(CC1)OC(=O)C(C)=C2C(=O)NCCCOC` is lower in “% Inhibition @ 10 uM” value: -1.82% for the first, -2.41% for the second.

Going from `CC1CCCCC1NC(=O)CN(C)S(=O)(=O)c1cccc2nsnc12` (stereo not shown) to `CN(C)S(=O)(=O)c1cccnc1N1CCN(CCO)CC1`, the “% Inhibition @ 10 uM” value falls from -2.17% to -5.28%.

Compared with `CC(C)(C)c1cc(CN2CCOCC2)c(O)c(C(C)(C)C)c1`, `CC1(C)CC(=O)C2=C(C1)N(CCCN1CCOCC1)C(=O)C2(NC(=O)c1ccccc1)C(F)(F)F` (stereo not shown) is higher in “% Inhibition @ 10 uM” value: -0.0217% for the first, 2.1% for the second.

Compared with `Cc1ccc(NC(=O)C2CC(=O)N(c3ccc(C)c(C)c3)C2)c(C)c1` (stereo not shown), `Cc1ccc(NC(=O)Cn2cc(C#N)c3ccccc32)c(C)c1` is higher in “% Inhibition @ 10 uM” value: -2.29% for the first, 0.746% for the second.

Going from `C=CCNC(=O)C1CCN(S(=O)(=O)CC)CC1` to `CC1CCCC(NC(=O)C2CCN(c3ncnc4c3nc3n4CCCCC3)CC2)C1C` (stereo not shown), the “% Inhibition @ 10 uM” value rises from 0.514% to 3.27%.

Going from `COc1ccc(CCNC(=O)CSc2nncn3c2cc2occc23)cc1OC` to `COc1ccc(CCNC(=O)Cn2nc(C)n3c(cc4cc(C)ccc43)c2=O)c(OC)c1`, the “% Inhibition @ 10 uM” value rises from -1.67% to 0.0198%.

First: Cc1ccc(SCCC(=O)NCc2ccccc2C)cc1
Second: O=C(COc1ccc2ccccc2c1Br)Nc1ccccc1
The “% Inhibition @ 10 uM” value of the first is lower: -7.16% for the first, -0.173% for the second.

Compared with `COc1ccc(-c2nc(CS(=O)CC(=O)N3CCC4(CC3)OCCO4)c(C)o2)cc1` (stereo not shown), `COc1ccc(OC)c(CN2CCN(Cc3cccnc3)CC2)c1` is lower in “% Inhibition @ 10 uM” value: 0.689% for the first, -8.37% for the second.

Compared with `COC(=O)c1sc2nccc(N(C)C)c2c1N`, `CN(C)c1cc(NC(=O)Cc2ccccc2)c2ccccc2n1` is lower in “% Inhibition @ 10 uM” value: -1.98% for the first, -4.96% for the second.

First: C=CCn1c(=N)c(C(=O)NCc2cccnc2)cc2c(=O)n3cccc(C)c3nc21
Second: CCc1nnc(NC(=O)c2cc3ccccc3c(=O)o2)s1
The “% Inhibition @ 10 uM” value of the first is lower: -1.47% for the first, 0.221% for the second.

First: Cn1nc(C(=O)N2CC=C(c3ccccc3)CC2)c2c1-c1ccccc1S(=O)(=O)C2
Second: O=C(O)c1cc(N2C(=O)c3ccccc3C2=O)cc(N2C(=O)c3ccccc3C2=O)c1
The “% Inhibition @ 10 uM” value of the first is higher: 5.82% for the first, 1.64% for the second.

Going from `CCOc1ccc(NC(=O)CCC(=O)c2ccc(-c3ccccc3)cc2)cc1` to `COc1ccc(NC(=O)COc2ccc(N(C)S(=O)(=O)c3ccc(C)cc3)cc2)cc1`, the “% Inhibition @ 10 uM” value falls from 1.29% to -7%.

Going from `CSc1ncc(Cl)c(C(=O)Nc2nnc(SCc3ccccc3)s2)n1` to `O=C(NCc1ccccc1)c1sc2ccccc2c1Cl`, the “% Inhibition @ 10 uM” value falls from 0.569% to -4.03%.

Going from `CCCCc1ccc(C2=N/C(=C\c3ccco3)C(=O)O2)cc1` to `CCCCN1COc2ccc3c(-c4ccccc4)cc(=O)oc3c2C1`, the “% Inhibition @ 10 uM” value rises from 0.264% to 3.61%.

Compared with `O=C(OCc1nc2ccccc2s1)c1ccc(F)cc1`, `COCc1cc(C)nc2sc3c(c12)NC(c1ccccc1C(=O)O)n1c-3nc2ccccc21` (stereo not shown) is lower in “% Inhibition @ 10 uM” value: 5.94% for the first, 4.19% for the second.

First: Nc1ncc(Br)cc1S(=O)(=O)N(CCO)Cc1ccccc1
Second: O=C(NCCc1ccccc1)c1ccc(Br)o1
The “% Inhibition @ 10 uM” value of the first is higher: 0.655% for the first, -2.42% for the second.

First: COc1cc(OC)c2nc(C)cc(Cl)c2c1
Second: Cc1cc(C)c(S(=O)(=O)N2CCN(c3ccc(F)cc3)CC2)c(C)c1
The “% Inhibition @ 10 uM” value of the first is higher: 2.77% for the first, -6.86% for the second.

Compared with `O=C(O)c1ccccc1NC1OC(CO)C(O)C(O)C1O` (stereo not shown), `Cc1c(CNC(C)(C)C)c(C(=O)O)c(C)n1Cc1ccccc1F` is lower in “% Inhibition @ 10 uM” value: 1.66% for the first, -5.49% for the second.

First: Cc1ccc(C(=O)O)cc1-c1ccc(/C=C2/NC(=O)N(Cc3ccccc3F)C2=O)o1
Second: CC1=C(C(=O)OCc2ccc3c(c2)OCO3)C(c2ccccc2C)CC(=O)N1 (stereo not shown)
The “% Inhibition @ 10 uM” value of the first is lower: -3.63% for the first, -0.396% for the second.

Going from `O=C1CCCN2N=C(SCc3ccccc3)SC2=N1` to `O=C1CC(=O)N2N=C(Cc3ccccc3)SC2=N1`, the “% Inhibition @ 10 uM” value falls from 3.94% to 0.219%.

Compared with `Cc1ccc(S(=O)(=O)NC(C)(C)CSc2ncccn2)cc1`, `CC1=C(C(=O)Nc2ccccn2)C(c2ccc(C(C)C)cc2)n2ncnc2N1` (stereo not shown) is higher in “% Inhibition @ 10 uM” value: -8.7% for the first, 2.32% for the second.

Compared with `Cc1ccc(/C=C(\C#N)c2nc(O)c3ccccc3n2)o1`, `Cc1cc(=O)oc(C)c1C(=O)NC1CCCc2ccccc21` (stereo not shown) is lower in “% Inhibition @ 10 uM” value: 2.26% for the first, -2.26% for the second.

First: CC1(C)CC(=O)C(/C=N/c2ccc(S(N)(=O)=O)cc2)=C(O)C1
Second: CCN1C2=C(C(=O)CC(C)(C)C2)C(c2ccc(OC)c(C(=O)O)c2)C2=C1CC(C)(C)CC2=O
The “% Inhibition @ 10 uM” value of the first is lower: -4.67% for the first, 0.13% for the second.

Compared with `O=C(NC(=S)N1CCSCC1)c1cccnc1`, `N#C/C(=C\c1ccc2c(c1)OCO2)C(=O)NC1CCS(=O)(=O)C1` (stereo not shown) is lower in “% Inhibition @ 10 uM” value: -5.11% for the first, -9.6% for the second.
